Results published in PubChem BioAssay AID1259400 (National Center for Advancing Translational Sciences (NCATS), 2018).
The campaign covered roughly 350,000 compounds. About 2,100 (0.6%) were called active. This list was built around the results that the source calls inconclusive (neither active nor inactive); the mix of calls is not that of the screen.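 How the source made its calls: active means activity change of -60% or lower, but not beyond a set lower limit; inconclusive means change between -60% and -40%, or beyond the set limit; inactive means change above -40%.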

Molecular target: Relaxin receptor 1 (Homo sapiens) (UniProt Q9HBX9)
Chain of UniProt Q9HBX9 (Q9HBX9 whole entry, looked up): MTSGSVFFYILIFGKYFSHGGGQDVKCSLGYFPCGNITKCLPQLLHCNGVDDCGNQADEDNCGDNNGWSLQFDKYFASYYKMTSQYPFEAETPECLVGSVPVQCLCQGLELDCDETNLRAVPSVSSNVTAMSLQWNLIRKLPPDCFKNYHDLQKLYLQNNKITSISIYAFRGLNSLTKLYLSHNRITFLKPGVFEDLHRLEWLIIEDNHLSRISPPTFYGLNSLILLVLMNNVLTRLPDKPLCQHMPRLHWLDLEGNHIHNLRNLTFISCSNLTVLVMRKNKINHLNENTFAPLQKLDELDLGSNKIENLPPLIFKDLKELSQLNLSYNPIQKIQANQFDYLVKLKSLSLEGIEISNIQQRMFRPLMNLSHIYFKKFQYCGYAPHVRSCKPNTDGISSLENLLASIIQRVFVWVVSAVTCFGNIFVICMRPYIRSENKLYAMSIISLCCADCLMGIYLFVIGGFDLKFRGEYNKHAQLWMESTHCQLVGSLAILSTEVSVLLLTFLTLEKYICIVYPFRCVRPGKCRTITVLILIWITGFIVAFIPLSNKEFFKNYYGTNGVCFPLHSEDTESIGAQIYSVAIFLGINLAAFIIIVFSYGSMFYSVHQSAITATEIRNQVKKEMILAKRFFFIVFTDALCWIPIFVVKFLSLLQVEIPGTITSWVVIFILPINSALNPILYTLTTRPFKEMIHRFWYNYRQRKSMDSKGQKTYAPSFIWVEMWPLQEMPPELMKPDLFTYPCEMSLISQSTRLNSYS
Assay: qHTS Assay for Antagonists of the Relaxin Receptor RXFP1
Settings: HEK293-RXFP1, relaxin-stimulated cAMP HTRF, 30 min; at 57.5 µM; hits give low values
On the % scale 0 is the no-effect control and ±100 the full control effect.

Row | Structure (SMILES) | activity change, negative = inhibition
1 | O=C(CCN1C(=O)/C(=C/c2ccccc2F)SC1=S)Nc1cccnc1 | inactive: -8.09%
2 | O=C(NC(=S)NC1CCCc2ccccc21)c1ccco1 (stereo not given) | inconclusive: -40.4%
3 | COc1ccc(NC(=O)c2ccc3c(SCC(=O)O)c4c(nc3c2)CCCC4)c(OC)c1 | inactive: -6.53%
4 | N#CNC(=Nc1ccccc1)SCc1ccc(C(=O)O)cc1 | inactive: 12.2%
5 | S=C(Nc1ccc(Cl)c(Cl)c1)NC1CCN(Cc2ccccc2)CC1 | active: -60.8%
6 | O=[N+]([O-])c1ccc(Cc2ccc([N+](=O)[O-])cc2)cc1 | inactive: -6.07%
7 | Cc1cc(C)c(O)c(-c2cc(C(=O)Nc3ccc(S(=O)(=O)N4CCOCC4)cc3)[nH]n2)c1 | inactive: -2.82%
8 | COc1cc(/C=C/c2nc(-c3ccccc3O)n[nH]2)cc(OC)c1OC | inconclusive: -51.5%
9 | CCOc1ccc(CONS(=O)(=O)c2ccc(NC(C)=O)cc2)cc1Cl | inconclusive: -43.4%
10 | Cc1ccc(Nc2nc(Cl)nc(NC(C)(C)C)n2)cc1 | active: -70.8%
11 | CS(=O)(=O)c1ccc2nc(NC(=O)Nc3cccc(Cl)c3)sc2c1 | inconclusive: -52.9%
12 | CCN(CC)CCCNc1ccc2ncn3c4ccc(O)cc4c(=O)c1c23 | inactive: -21.2%
13 | O=C(NCCc1ccccc1)c1ccccc1NC(=O)C1CC=CCC1C(=O)O (stereo not given) | inactive: 29.3%
14 | O=C(/C=C/c1ccco1)Nc1cccc(C(=O)Nc2ccccc2C(=O)O)c1 | inconclusive: -44.9%
15 | CCCCOc1ccc(C(=O)N2CCC(c3nc4ccccc4o3)CC2)cc1 | inconclusive: -48.2%
16 | O=C(COCc1cc(-c2cccs2)on1)Nc1cccc(Cl)c1Cl | inconclusive: -49.1%
17 | COc1cc(/C=C2\CCC/C(=C\c3ccc(O)c(OC)c3)C2=O)ccc1O | active: -68.8%
18 | COc1ccc(NC(=O)c2cc(Br)c(Br)s2)cn1 | inconclusive: -50.1%
19 | CCN(CC(=O)Nc1ccc(Br)c(C)c1)CC(=O)NC(C)C | inconclusive: -50.7%
20 | O=C(CCN1CCN(C/C=C/c2ccccc2)CC1)Nc1ccc(Cl)cc1 | inactive: -3.62%
21 | O=C(NCCCn1ccnc1)c1cn(-c2ccccc2)nc1-c1ccc(F)cc1 | inactive: 17.6%
22 | O=C(NCCO)/C(=C\c1cccc([N+](=O)[O-])c1)NC(=O)c1cccs1 | inactive: 4.49%
23 | O=C1N=c2ccccc2=C1c1sc(Nc2ccc(O)cc2)nc1O | active: -80.8%
24 | Cc1snc(SCc2ccc(F)cc2)c1C#N | inactive: -10.3%
25 | COc1cccc2[nH]c3c(N4CCCCC4)ncnc3c12 | inactive: -11.7%
26 | O=C(CCCn1c(=S)[nH]c2ccsc2c1=O)NCCc1ccccc1 | active: -94.3%
27 | CCn1c(CCC(=O)Nc2ccccc2F)nnc1SCC(=O)Nc1ccc(OC)cc1 | inactive: -15.5%
28 | CCC(C)(C)NC(=O)C(c1ccncc1)N(C(=O)Cn1nnc2ccccc21)c1cc2c(cc1C(C)=O)OCO2 (stereo not given) | inconclusive: -45.2%

Row | Structure (SMILES) | activity change, negative = inhibition
29 | CCCc1nn2c(=O)cc(CSCC(=O)Nc3ccc(F)cc3)nc2s1 | inactive: 0.675%
30 | O=c1c2cc3c(cc2n(Cc2cccc(F)c2)c(=O)n1Cc1nc(-c2ccccc2)no1)OCO3 | inactive: -7.68%
31 | CCN(CC)CCN(Cc1cc2cc(C)c(C)cc2[nH]c1=O)C(=S)NCc1ccco1 | inconclusive: -52.2%
32 | O=C(/C=C/c1cccc(Cl)c1)c1nc2ccccc2[nH]1 | active: -82.4%
33 | O=C(N/N=C/C(Br)=C/c1ccccc1)c1cc(-c2ccco2)[nH]n1 | active: -80.6%
34 | CC(C)(C)OC(=O)N1CCC(c2c(C(=O)Nc3ccc4c(c3)OCO4)cnn2-c2ccc(F)cc2F)CC1 | inconclusive: -46.4%
35 | O=C(Nc1cccnc1Cl)c1ccc(Cl)cc1 | active: -63.2%
36 | CCc1ccc2occ(CC(=O)Nc3c(C(=O)Nc4ccc(Cl)cc4)oc4ccccc34)c2c1 | inactive: -13.6%
37 | Cc1cccc(CS(=O)(=O)c2ncc(Cl)c(C(=O)NCc3ccc4c(c3)OCO4)n2)c1 | active: -86.9%
38 | Cc1ccccc1S(=O)(=O)N(C)C[C@@H]1OCc2ccccc2-c2c(n(C)c3ccccc23)C(=O)N([C@H](C)CO)C[C@@H]1C | inactive: -6.18%
39 | CC(=O)c1ccc2c(c1)N(CCCN1CCC(CCO)CC1)c1ccccc1S2 | inconclusive: -40.4%
40 | N#C/C(=C\c1ccccc1)C(=O)NCc1ccc(F)cc1 | active: -65.1%
41 | Cn1c(=O)c2sccc2n2c(CCCC(=O)NCCc3ccc(S(N)(=O)=O)cc3)nnc12 | inactive: 19.6%
42 | FC(F)C(F)(F)c1cc(-c2ccc(Cl)cc2)n[nH]1 | inconclusive: -51.1%
43 | CC(=O)Nc1ccc(S(=O)(=O)N2CCC(C(=O)c3ccc(Cl)cc3)CC2)cc1 | inconclusive: -53.4%
44 | CC(C)OCCCN1C(=O)c2[nH]nc(-c3ccccc3O)c2C1c1cccc(OCc2ccccc2)c1 (stereo not given) | inconclusive: -55.3%
45 | C=CCn1c(-c2cc(-c3ccc(C)cc3)nc3ccccc23)n[nH]c1=S | inconclusive: -57.9%
46 | C=CCN1C(=O)C2(OCCCO2)c2cc(CCCC)ccc21 | inconclusive: -41%
47 | Cc1ccc(-c2cn(-c3ccccc3)c(=S)[nH]2)cc1C | active: -76.6%
48 | CNCC[C@H](Oc1cccc2ccccc12)c1cccs1 | inconclusive: -40.3%
49 | O=C(CN1CCN(c2cccc(Cl)c2)CC1)NC1CCCc2ccccc21 (stereo not given) | inconclusive: -47.6%
50 | O=C(c1ccc(Cn2c(=S)[nH]c3ccccc3c2=O)cc1)N1CCN(c2ccccn2)CC1 | inconclusive: -55.2%
51 | COc1ccc2c(c1)-c1nc(NC(=O)c3ccccc3F)sc1CC2 | inactive: 10.1%
52 | CCOc1cc(NC(=S)NCCOC)c(OCC)cc1NC(=O)c1ccco1 | inconclusive: -59.9%
53 | Cc1ccc(NC2=CC(=O)CC(C)(C)C2)cc1C | inactive: 15.1%
54 | CC(=O)c1ccc(OCCCC(=O)Nc2ccc(Cl)c(S(=O)(=O)N3CCOCC3)c2)cc1 | inactive: -5.2%
55 | O=C(Cc1ccc(F)cc1)N1CCC(c2nc3c(nnn3Cc3ccc(F)cc3)c(=O)[nH]2)CC1 | inconclusive: -44%
